Results as given in the CheMixHub viscosity set.
This continues a long series; more values of the same kind are listed elsewhere.

Assay: xn = mol fraction of the nth substance listed

OCCO + O
Details | viscosity [mPa·s]
293.15 K, 101 kPa, x1 = 0.045 | 1.46
293.15 K, 101 kPa, x1 = 0.104 | 2.25
293.15 K, 101 kPa, x1 = 0.162 | 2.98
293.15 K, 101 kPa, x1 = 0.225 | 3.96
293.15 K, 101 kPa, x1 = 0.322 | 5.178
293.15 K, 101 kPa, x1 = 0.404 | 7.1
293.15 K, 101 kPa, x1 = 0.5563 | 9.573
293.15 K, 101 kPa, x1 = 0.569 | 10.3
293.15 K, 101.33 kPa, x1 = 0.0312 | 1.279
293.15 K, 101.33 kPa, x1 = 0.0487 | 1.46
293.15 K, 101.33 kPa, x1 = 0.0677 | 1.646
293.15 K, 101.33 kPa, x1 = 0.1 | 1.99
293.15 K, 101.33 kPa, x1 = 0.1622 | 2.794
293.15 K, 101.33 kPa, x1 = 0.2 | 3.343
293.15 K, 101.33 kPa, x1 = 0.225 | 3.711
293.15 K, 101.33 kPa, x1 = 0.3003 | 4.917
293.15 K, 101.33 kPa, x1 = 0.4038 | 6.825
293.15 K, 101.33 kPa, x1 = 0.5373 | 9.656
293.15 K, 101.33 kPa, x1 = 0.7232 | 13.71
298 K, 101.3 kPa, x1 = 0.068 | 1.35
298 K, 101.3 kPa, x1 = 0.16 | 2.23
298 K, 101.3 kPa, x1 = 0.54 | 8.14
298.15 K, 100 kPa, x1 = 0.2 | 2.925
298.15 K, 100 kPa, x1 = 0.4 | 5.764
298.15 K, 100 kPa, x1 = 0.6 | 9.207
298.15 K, 100 kPa, x1 = 0.8 | 13.1
298.15 K, 101.33 kPa, x1 = 0.04551 | 1.26
298.15 K, 101.33 kPa, x1 = 0.1256 | 1.62
298.15 K, 101.33 kPa, x1 = 0.1927 | 2.86
298.15 K, 101.33 kPa, x1 = 0.2218 | 3.2
298.15 K, 101.33 kPa, x1 = 0.3108 | 4.49
298.15 K, 101.33 kPa, x1 = 0.3983 | 6.23
298.15 K, 101.33 kPa, x1 = 0.474 | 9.2
302.25 K, 101 kPa, x1 = 0.458 | 5.8
302.35 K, 101 kPa, x1 = 0.088 | 1.448
302.75 K, 101 kPa, x1 = 0.224 | 2.732
303.15 K, 101 kPa, x1 = 0.01 | 0.857
303.15 K, 101 kPa, x1 = 0.02 | 0.929
303.15 K, 101 kPa, x1 = 0.0299 | 0.996
303.15 K, 101 kPa, x1 = 0.0376 | 1.056
303.15 K, 101 kPa, x1 = 0.0399 | 1.062
303.15 K, 101 kPa, x1 = 0.05 | 1.132
303.15 K, 101 kPa, x1 = 0.06 | 1.212
303.15 K, 101 kPa, x1 = 0.07 | 1.292
303.15 K, 101 kPa, x1 = 0.08 | 1.371
303.15 K, 101 kPa, x1 = 0.1001 | 1.534
303.15 K, 101 kPa, x1 = 0.1755 | 2.191
303.15 K, 101 kPa, x1 = 0.5563 | 6.637
303.15 K, 101.33 kPa, x1 = 0.0487 | 1.181
303.15 K, 101.33 kPa, x1 = 0.0677 | 1.317
303.15 K, 101.33 kPa, x1 = 0.1 | 1.577
303.15 K, 101.33 kPa, x1 = 0.1622 | 2.131
303.15 K, 101.33 kPa, x1 = 0.2 | 2.496
303.15 K, 101.33 kPa, x1 = 0.225 | 2.764
303.15 K, 101.33 kPa, x1 = 0.3003 | 3.595
303.15 K, 101.33 kPa, x1 = 0.4038 | 4.866
303.15 K, 101.33 kPa, x1 = 0.5373 | 6.671
303.15 K, 101.33 kPa, x1 = 0.7232 | 9.406
308.15 K, 101 kPa, x1 = 0.01 | 0.772
308.15 K, 101 kPa, x1 = 0.02 | 0.836
308.15 K, 101 kPa, x1 = 0.0299 | 0.893
308.15 K, 101 kPa, x1 = 0.0399 | 0.95
308.15 K, 101 kPa, x1 = 0.05 | 1.01
308.15 K, 101 kPa, x1 = 0.06 | 1.079
308.15 K, 101 kPa, x1 = 0.08 | 1.215
308.15 K, 101 kPa, x1 = 0.0899 | 1.283
308.15 K, 101 kPa, x1 = 0.1001 | 1.354
312.65 K, 101 kPa, x1 = 0.458 | 4.207
312.75 K, 101 kPa, x1 = 0.224 | 2.069
313.15 K, 101 kPa, x1 = 0.01 | 0.699
313.15 K, 101 kPa, x1 = 0.02 | 0.756
313.15 K, 101 kPa, x1 = 0.0299 | 0.807
313.15 K, 101 kPa, x1 = 0.0376 | 0.8523
313.15 K, 101 kPa, x1 = 0.0399 | 0.856
313.15 K, 101 kPa, x1 = 0.05 | 0.908
313.15 K, 101 kPa, x1 = 0.06 | 0.969
313.15 K, 101 kPa, x1 = 0.07 | 1.026
313.15 K, 101 kPa, x1 = 0.0744 | 1.067
313.15 K, 101 kPa, x1 = 0.08 | 1.086
313.15 K, 101 kPa, x1 = 0.088 | 1.125
313.15 K, 101 kPa, x1 = 0.0899 | 1.145
313.15 K, 101 kPa, x1 = 0.1001 | 1.205
313.15 K, 101 kPa, x1 = 0.1209 | 1.343
313.15 K, 101 kPa, x1 = 0.1755 | 1.704
313.15 K, 101 kPa, x1 = 0.5563 | 4.838
313.15 K, 101.33 kPa, x1 = 0.0312 | 0.8238
313.15 K, 101.33 kPa, x1 = 0.0487 | 0.9179
313.15 K, 101.33 kPa, x1 = 0.0677 | 1.034
313.15 K, 101.33 kPa, x1 = 0.1 | 1.244
313.15 K, 101.33 kPa, x1 = 0.1622 | 1.634
313.15 K, 101.33 kPa, x1 = 0.2 | 2.074
313.15 K, 101.33 kPa, x1 = 0.225 | 2.116
313.15 K, 101.33 kPa, x1 = 0.3003 | 2.789
313.15 K, 101.33 kPa, x1 = 0.4038 | 3.613
313.15 K, 101.33 kPa, x1 = 0.5373 | 4.906
313.15 K, 101.33 kPa, x1 = 0.7232 | 6.737
318.15 K, 101 kPa, x1 = 0.01 | 0.64
318.15 K, 101 kPa, x1 = 0.02 | 0.69
318.15 K, 101 kPa, x1 = 0.0299 | 0.733
318.15 K, 101 kPa, x1 = 0.0399 | 0.777
318.15 K, 101 kPa, x1 = 0.05 | 0.822
318.15 K, 101 kPa, x1 = 0.06 | 0.876
318.15 K, 101 kPa, x1 = 0.07 | 0.927
318.15 K, 101 kPa, x1 = 0.08 | 0.976
318.15 K, 101 kPa, x1 = 0.0899 | 1.03
318.15 K, 101 kPa, x1 = 0.1001 | 1.083
323.15 K, 100 kPa, x1 = 0.2 | 1.468
323.15 K, 100 kPa, x1 = 0.4 | 2.638
323.15 K, 100 kPa, x1 = 0.6 | 3.948
323.15 K, 100 kPa, x1 = 0.8 | 5.303
323.15 K, 101 kPa, x1 = 0.01 | 0.587
323.15 K, 101 kPa, x1 = 0.02 | 0.63
323.15 K, 101 kPa, x1 = 0.0299 | 0.671
323.15 K, 101 kPa, x1 = 0.0376 | 0.7163
323.15 K, 101 kPa, x1 = 0.0399 | 0.709
323.15 K, 101 kPa, x1 = 0.05 | 0.75
323.15 K, 101 kPa, x1 = 0.06 | 0.795
323.15 K, 101 kPa, x1 = 0.07 | 0.842
323.15 K, 101 kPa, x1 = 0.0744 | 0.8672
323.15 K, 101 kPa, x1 = 0.08 | 0.887
323.15 K, 101 kPa, x1 = 0.0899 | 0.933
323.15 K, 101 kPa, x1 = 0.1001 | 0.978
323.15 K, 101 kPa, x1 = 0.1209 | 1.09
323.15 K, 101 kPa, x1 = 0.1755 | 1.367
323.15 K, 101 kPa, x1 = 0.322 | 2.175
323.15 K, 101 kPa, x1 = 0.5563 | 3.662
